In the supplement of paper PMC8728848:
Some of the results follow.

Legend:
Test in all cases: glycan array binding signal (z-score within array); higher = stronger binding
Settings in all cases: glycan notation: IUPAC condensed, linker removed; mutation: E41A
[1] = biological target: GlcNAc(b1-3)Gal(b1-3)GalNAc
Method in brief: (§1)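 From the Consortium for Functional Glycomics database, 3228 arrays were curated, keeping only those whose protein sequence was available. Binding is given as a within-array Z-score averaged across arrays sharing a protein sequence and across linkers. Negative Z-scores can be read as non-binding.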

GlcNAc(b1-3)Gal(b1-4)Glc = biological target: GlcNAc(b1-3)Gal(b1-4)Glc
Method in brief: as §1

[2] = biological target: GlcNAc(b1-3)Gal(b1-4)GlcNAc
Method in brief: as §1

[3] = biological target: GlcNAc(b1-3)Gal(b1-4)GlcNAc(b1-2)Man(a1-3)[GlcNAc(b1-3)Gal(b1-4)GlcNAc(b1-2)Man(a1-6)]Man(b1-4)GlcNAc(b1-4)GlcNAc
Method in brief: as §1

[4] = biological target: GlcNAc(b1-3)Gal(b1-4)GlcNAc(b1-2)Man(a1-3)[GlcNAc(b1-3)Gal(b1-4)GlcNAc(b1-2)Man(a1-6)]Man(b1-4)GlcNAc(b1-4)[Fuc(a1-6)]GlcNAc
Method in brief: as §1

[5] = biological target: GlcNAc(b1-3)Gal(b1-4)GlcNAc(b1-2)[GlcNAc(b1-3)Gal(b1-4)GlcNAc(b1-6)]Man(a1-6)[GlcNAc(b1-3)Gal(b1-4)GlcNAc(b1-2)Man(a1-3)]Man(b1-4)GlcNAc(b1-4)GlcNAc
Method in brief: as §1

[6] = biological target: GlcNAc(b1-3)Gal(b1-4)GlcNAc(b1-3)Gal(b1-4)GlcNAc
Method in brief: as §1

[7] = biological target: GlcNAc(b1-3)Gal(b1-4)GlcNAc(b1-3)Gal(b1-4)GlcNAc(b1-2)Man(a1-3)[GlcNAc(b1-3)Gal(b1-4)GlcNAc(b1-3)Gal(b1-4)GlcNAc(b1-2)Man(a1-6)]Man(b1-4)GlcNAc(b1-4)GlcNAc
Method in brief: as §1

[8] = biological target: GlcNAc(b1-3)Gal(b1-4)GlcNAc(b1-3)Gal(b1-4)GlcNAc(b1-2)Man(a1-3)[GlcNAc(b1-3)Gal(b1-4)GlcNAc(b1-3)Gal(b1-4)GlcNAc(b1-2)Man(a1-6)]Man(b1-4)GlcNAc(b1-4)[Fuc(a1-6)]GlcNAc
Method in brief: as §1

[9] = biological target: GlcNAc(b1-3)Gal(b1-4)GlcNAc(b1-3)Gal(b1-4)GlcNAc(b1-2)[GlcNAc(b1-3)Gal(b1-4)GlcNAc(b1-3)Gal(b1-4)GlcNAc(b1-6)]Man(a1-6)[GlcNAc(b1-3)Gal(b1-4)GlcNAc(b1-3)Gal(b1-4)GlcNAc(b1-2)Man(a1-3)]Man(b1-4)GlcNAc(b1-4)[Fuc(a1-6)]GlcNAc
Method in brief: as §1

[10] = biological target: GlcNAc(b1-3)Gal(b1-4)GlcNAc(b1-3)Gal(b1-4)GlcNAc(b1-3)Gal(b1-4)GlcNAc(b1-2)Man(a1-3)[GlcNAc(b1-3)Gal(b1-4)GlcNAc(b1-3)Gal(b1-4)GlcNAc(b1-3)Gal(b1-4)GlcNAc(b1-2)Man(a1-6)]Man(b1-4)GlcNAc(b1-4)GlcNAc
Method in brief: as §1

[11] = biological target: GlcNAc(b1-3)Gal(b1-4)GlcNAc(b1-3)Gal(b1-4)GlcNAc(b1-3)Gal(b1-4)GlcNAc(b1-2)Man(a1-3)[GlcNAc(b1-3)Gal(b1-4)GlcNAc(b1-3)Gal(b1-4)GlcNAc(b1-3)Gal(b1-4)GlcNAc(b1-2)Man(a1-6)]Man(b1-4)GlcNAc(b1-4)[Fuc(a1-6)]GlcNAc
Method in brief: as §1

[12] = biological target: GlcNAc(b1-3)Gal(b1-4)GlcNAc(b1-3)Gal(b1-4)GlcNAc(b1-3)Gal(b1-4)GlcNAc(b1-2)[GlcNAc(b1-3)Gal(b1-4)GlcNAc(b1-3)Gal(b1-4)GlcNAc(b1-3)Gal(b1-4)GlcNAc(b1-6)]Man(a1-6)[GlcNAc(b1-3)Gal(b1-4)GlcNAc(b1-3)Gal(b1-4)GlcNAc(b1-3)Gal(b1-4)GlcNAc(b1-2)Man(a1-3)]Man(b1-4)GlcNAc(b1-4)[Fuc(a1-6)]GlcNAc
Method in brief: as §1

[13] = biological target: GlcNAc(b1-3)Gal(b1-4)GlcNAc(b1-3)Gal(b1-4)GlcNAc(b1-3)Gal(b1-4)GlcNAc(b1-3)Gal(b1-4)GlcNAc(b1-2)Man(a1-3)[GlcNAc(b1-3)Gal(b1-4)GlcNAc(b1-3)Gal(b1-4)GlcNAc(b1-3)Gal(b1-4)GlcNAc(b1-3)Gal(b1-4)GlcNAc(b1-2)Man(a1-6)]Man(b1-4)GlcNAc(b1-4)GlcNAc
Method in brief: as §1

[14] = biological target: GlcNAc(b1-3)Gal(b1-4)GlcNAc(b1-3)Gal(b1-4)GlcNAc(b1-3)Gal(b1-4)GlcNAc(b1-3)Gal(b1-4)GlcNAc(b1-2)Man(a1-3)[GlcNAc(b1-3)Gal(b1-4)GlcNAc(b1-3)Gal(b1-4)GlcNAc(b1-3)Gal(b1-4)GlcNAc(b1-3)Gal(b1-4)GlcNAc(b1-2)Man(a1-6)]Man(b1-4)GlcNAc(b1-4)[Fuc(a1-6)]GlcNAc
Method in brief: as §1

[15] = biological target: GlcNAc(b1-3)Gal(b1-4)GlcNAc(b1-3)Gal(b1-4)GlcNAc(b1-3)Gal(b1-4)GlcNAc(b1-3)Gal(b1-4)GlcNAc(b1-2)[GlcNAc(b1-3)Gal(b1-4)GlcNAc(b1-3)Gal(b1-4)GlcNAc(b1-3)Gal(b1-4)GlcNAc(b1-3)Gal(b1-4)GlcNAc(b1-6)]Man(a1-6)[GlcNAc(b1-3)Gal(b1-4)GlcNAc(b1-3)Gal(b1-4)GlcNAc(b1-3)Gal(b1-4)GlcNAc(b1-3)Gal(b1-4)GlcNAc(b1-2)Man(a1-3)]Man(b1-4)GlcNAc(b1-4)[Fuc(a1-6)]GlcNAc
Method in brief: as §1

[16] = biological target: GlcNAc(b1-3)Gal(b1-4)GlcNAc(b1-3)Gal(b1-4)GlcNAc(b1-3)GalNAc
Method in brief: as §1

[17] = biological target: GlcNAc(b1-3)Gal(b1-4)GlcNAc(b1-3)GalNAc
Method in brief: as §1

[18] = biological target: GlcNAc(b1-3)Gal(b1-4)GlcNAc(b1-3)[GlcNAc(b1-3)Gal(b1-4)GlcNAc(b1-3)]GalNAc
Method in brief: as §1

[19] = biological target: GlcNAc(b1-3)Gal(b1-4)GlcNAc(b1-6)[Gal(b1-3)]GalNAc
Method in brief: as §1

[20] = biological target: GlcNAc(b1-3)Gal(b1-4)GlcNAc(b1-6)[GlcNAc(b1-3)Gal(b1-3)]GalNAc
Method in brief: as §1

[21] = biological target: GlcNAc(b1-3)Gal(b1-4)GlcNAc(b1-6)[GlcNAc(b1-3)]Gal(b1-4)GlcNAc
Method in brief: as §1

GlcNAc(b1-3)GalNAc = biological target: GlcNAc(b1-3)GalNAc
Method in brief: as §1

GlcNAc(b1-3)Man = biological target: GlcNAc(b1-3)Man
Method in brief: as §1

[22] = biological target: GlcNAc(b1-3)[GlcNAc(b1-4)][GlcNAc(b1-6)]GlcNAc
Method in brief: as §1

[23] = biological target: GlcNAc(b1-3)[GlcNAc(b1-6)]Gal(b1-4)GlcNAc
Method in brief: as §1

[24] = biological target: GlcNAc(b1-3)[GlcNAc(b1-6)]GalNAc
Method in brief: as §1

[25] = biological target: GlcNAc(b1-4)Gal(b1-4)GlcNAc
Method in brief: as §1

GlcNAc(b1-4)GlcNAc = biological target: GlcNAc(b1-4)GlcNAc
Method in brief: as §1

[26] = biological target: GlcNAc(b1-4)GlcNAc(b1-4)GlcNAc
Method in brief: as §1

[27] = biological target: GlcNAc(b1-4)GlcNAc(b1-4)GlcNAc(b1-4)GlcNAc(b1-4)GlcNAc
Method in brief: as §1

[28] = biological target: GlcNAc(b1-4)GlcNAc(b1-4)GlcNAc(b1-4)GlcNAc(b1-4)GlcNAc(b1-4)GlcNAc
Method in brief: as §1

[29] = biological target: GlcNAc(b1-4)[GlcNAc(b1-6)]GalNAc
Method in brief: as §1

[30] = biological target: GlcNAc(b1-6)Gal(b1-4)GlcNAc
Method in brief: as §1

GlcNAc(b1-6)GalNAc = biological target: GlcNAc(b1-6)GalNAc
Method in brief: as §1

[31] = biological target: GlcNAc6S(b1-3)Gal(b1-4)GlcNAc
Method in brief: as §1

Kdn(a2-3)Gal(b1-3)GalNAc = biological target: Kdn(a2-3)Gal(b1-3)GalNAc
Method in brief: as §1

Kdn(a2-3)Gal(b1-3)GlcNAc = biological target: Kdn(a2-3)Gal(b1-3)GlcNAc
Method in brief: as §1

Kdn(a2-3)Gal(b1-4)Glc = biological target: Kdn(a2-3)Gal(b1-4)Glc
Method in brief: as §1

Kdn(a2-3)Gal(b1-4)GlcNAc = biological target: Kdn(a2-3)Gal(b1-4)GlcNAc
Method in brief: as §1

[32] = biological target: Kdn(a2-3)Gal(b1-4)[Fuc(a1-3)]GlcNAc
Method in brief: as §1

Kdn(a2-6)Gal(b1-4)GlcNAc = biological target: Kdn(a2-6)Gal(b1-4)GlcNAc
Method in brief: as §1

[33] = biological target: Man(a1-2)Man(a1-2)Man(a1-3)Man
Method in brief: as §1

[34] = biological target: Man(a1-2)Man(a1-2)Man(a1-6)[Man(a1-3)]Man
Method in brief: as §1

Man(a1-2)Man(a1-3)Man = biological target: Man(a1-2)Man(a1-3)Man
Method in brief: as §1

B1: CVN-E41G (protein)
chain: MHHHHHHENLYFQSGNFSQACYNSAIQGSVLTSTCIRTNGGYNTSSIDLNSVIANVDGSLKWQGSNFIETCRNTQLAGSSELAAECKTRAQQFVSTKINLDDHIAAIDGTLKYE
glycan array binding signal (z-score) [1]: -0.219
glycan array binding signal (z-score) (GlcNAc(b1-3)Gal(b1-4)Glc): -0.225
glycan array binding signal (z-score) [2]: -0.211
glycan array binding signal (z-score) [3]: -0.242
glycan array binding signal (z-score) [4]: -0.035
glycan array binding signal (z-score) [5]: -0.064
glycan array binding signal (z-score) [6]: -0.213
glycan array binding signal (z-score) [7]: -0.16
glycan array binding signal (z-score) [8]: -0.135
glycan array binding signal (z-score) [9]: -0.141
glycan array binding signal (z-score) [10]: -0.194
glycan array binding signal (z-score) [11]: -0.087
glycan array binding signal (z-score) [12]: -0.165
glycan array binding signal (z-score) [13]: -0.204
glycan array binding signal (z-score) [14]: -0.088
glycan array binding signal (z-score) [15]: -0.135
glycan array binding signal (z-score) [16]: -0.168
glycan array binding signal (z-score) [17]: -0.17
glycan array binding signal (z-score) [18]: 0.323
glycan array binding signal (z-score) [19]: -0.13
glycan array binding signal (z-score) [20]: -0.104
glycan array binding signal (z-score) [21]: -0.193
glycan array binding signal (z-score) (GlcNAc(b1-3)GalNAc): -0.228
glycan array binding signal (z-score) (GlcNAc(b1-3)Man): -0.223
glycan array binding signal (z-score) [22]: -0.222
glycan array binding signal (z-score) [23]: -0.239
glycan array binding signal (z-score) [24]: -0.223
glycan array binding signal (z-score) [25]: -0.206
glycan array binding signal (z-score) (GlcNAc(b1-4)GlcNAc): -0.083
glycan array binding signal (z-score) [26]: -0.201
glycan array binding signal (z-score) [27]: -0.15
glycan array binding signal (z-score) [28]: -0.226
glycan array binding signal (z-score) [29]: -0.253
glycan array binding signal (z-score) [30]: -0.048
glycan array binding signal (z-score) (GlcNAc(b1-6)GalNAc): -0.213
glycan array binding signal (z-score) [31]: -0.122
glycan array binding signal (z-score) (Kdn(a2-3)Gal(b1-3)GalNAc): -0.181
glycan array binding signal (z-score) (Kdn(a2-3)Gal(b1-3)GlcNAc): -0.212
glycan array binding signal (z-score) (Kdn(a2-3)Gal(b1-4)Glc): -0.177
glycan array binding signal (z-score) (Kdn(a2-3)Gal(b1-4)GlcNAc): -0.198
glycan array binding signal (z-score) [32]: -0.225
glycan array binding signal (z-score) (Kdn(a2-6)Gal(b1-4)GlcNAc): -0.193
glycan array binding signal (z-score) [33]: 8.7
glycan array binding signal (z-score) [34]: 8.39
glycan array binding signal (z-score) (Man(a1-2)Man(a1-3)Man): 7.22
